The nature of this assay: qHTS Assay for Lipid Storage Modulators (AID 1519). Particulars: Drosophila S3 cells, BODIPY lipid droplet/cell ratio, laser cytometry, cells loaded with oleic acid. In outline: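 Cells seeded at 5,000 per well were treated with compounds over a concentration series and loaded with oleic acid (400 uM, as added). Lipid droplet fluorescence (488 nm excitation, 500-530 nm channel) was read by laser-scanning cytometry and normalized to 20 uM Triacsin C.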

[1] abbreviates: measured here: cell count channel max response.
Setting [2] is: measured here: cell number channel AC50.
Setting [3] is: measured here: lipid (BODIPY) channel AC50.
[4] abbreviates: measured here: lipid channel max response.

SMILES strings stand for the structures. Where “and” joins values, the source holds several entries; their conditions need not be identical. Identical values can stand only once. Some of the results follow. These are further read-outs of the screen, such as a control signal, another cell line or another target. No call is given for them. Most of these compounds were active or inconclusive in the main read-out, so they are no random draw. The note in brackets gives the kind of curve behind each potency; many fits are weak.
Tags describe the fitted curve by direction and shape.

Consider `CS(=O)c1ccc(-c2nc(-c3ccc(F)cc3)c(-c3ccncc3)[nH]2)cc1` (stereo unspecified), for which the max response is, setting by setting: under setting [1], 91.6% and 93%; under setting [4], 118% and 121%. The AC50 reads like this: under setting [2], 7.08 µM [rising, partial curve] and 12.6 µM [rising, partial curve]; under setting [3], 7.08 µM [rising, partial curve] and 14.1 µM [rising, partial curve].
As to `O=C1/C(=C\c2ccccc2)C[C@@]2(O)[C@H]3Cc4ccc(O)c5c4[C@@]2(CCN3CC2CC2)[C@@H]1O5`, the max response under setting [1] worked out at 20.5% and the max response under setting [4] is -26%. Besides, the AC50 is, setting by setting: under setting [2], 7.94 µM [rising, full curve, poor fit]; under setting [3], 2.51 µM [rising, full curve, poor fit].
Turning to `COC(=O)/C(C)=C\CC12OC(C)(C)C3CC(C=C4C(=O)c5c(OC)c6c(c(CC=C(C)C)c5OC431)OC(C)(CCC=C(C)C)C=C6)C2=O` (stereo unspecified), the max response under setting [1] was -48.2% and the max response under setting [4] was -113%. Also, the AC50 by setting is: under setting [2], 11.2 µM [falling, partial curve]; under setting [3], 10 µM [falling, partial curve].
Regarding `C[C@@H](C(=O)O)c1ccc(-c2ccccc2)c(F)c1`, the max response runs as follows: under setting [1], 32.2%; under setting [4], 45.9%. Moreover, the AC50 by setting is: under setting [2], 11.2 µM [rising, full curve, poor fit]; under setting [3], 11.2 µM [rising, full curve, poor fit].
For `O=c1cc(-c2ccc(O)c(O)c2)oc2cc(O)cc(O)c12`, the max response reads like this: under setting [1], -43.5% and 59.6%; under setting [4], -60.3% and -43.2%. Also, the AC50 was 22.4 µM [falling, single point] and 14.1 µM [rising, partial curve, poor fit] under setting [2]; 20 µM [falling, single point] and 44.7 µM [falling, single point] under setting [3].
Turning to `O=C(Oc1ccccc1)N1CCC2(CCCN(Cc3nccs3)C2)CC1`, the max response under setting [1] is 16.8% and the max response under setting [4] turned out to be 21.3%. The AC50 runs as follows: under setting [2], 0.0141 µM [rising, full curve]; under setting [3], 0.0178 µM [rising, full curve].
With `CCCOc1ccc2[nH]cc(C3=CCNCC3)c2n1`, the max response was 101% under setting [1] and 135% under setting [4]. Further, the AC50 is 14.1 µM [rising, partial curve] under setting [2] and 14.1 µM [rising, partial curve] under setting [3].
With `COc1ccc2c(c1O)-c1c(OC)c(OC)cc3c1[C@H](C2)N(C)CC3`, the max response reads like this: under setting [1], 92.5%; under setting [4], 116%. Moreover, the AC50 is 39.8 µM [rising, single point] under setting [2] and 39.8 µM [rising, partial curve, poor fit] under setting [3].
For the molecule `Clc1ccccc1-c1cncnc1NCCc1cnc[nH]1`, the max response worked out at 44.2% under setting [1] and 56.8% under setting [4]. The AC50 by setting is: under setting [2], 0.891 µM [rising, full curve, poor fit]; under setting [3], 1 µM [rising, full curve].
In the case of `c1ccc(CN2CCC3(CCc4ccccc43)CC2)cc1`, the max response runs as follows: under setting [1], 56.4%; under setting [4], 70.4%. For the same molecule, the AC50 under setting [2] was 35.5 µM [rising, partial curve, poor fit] and the AC50 under setting [3] is 28.2 µM [rising, partial curve, poor fit].
In the case of `O=C1CC(c2ccc(O)cc2)Oc2cc(O)cc(O)c21` (stereo unspecified), the max response under setting [1] was found to be 36.5% and the max response under setting [4] was found to be 50.5%. Besides, the concentration at half-maximal activity (AC50) under setting [2] was 31.6 µM [rising, partial curve, poor fit] and the AC50 under setting [3] was 31.6 µM [rising, partial curve, poor fit].
Turning to `c1ccc2c(c1)OC[C@@H](C1=NCCN1)O2`, the max response was 72.3% under setting [1] and 90% under setting [4]. The AC50 under setting [2] is 17.8 µM [rising, partial curve] and the AC50 under setting [3] was 20 µM [rising, partial curve].
`COC(=O)[C@]1(C)CC[C@@]2(C)CC[C@@]3(C)C4=CC=C5C(=CC(=O)C(O)=C5C)[C@@]4(C)CC[C@@]3(C)C2C1` (stereo partly specified): the max response is -84.3% under setting [1] and -98.7% under setting [4]. In addition, the AC50 was 20 µM [falling, partial curve] under setting [2] and 7.08 µM [falling, partial curve] under setting [3].
Turning to `Clc1ccc(C2=CCC[C@H]3CC[C@@H]2N3)cn1`, the max response under setting [1] turned out to be 42.7% and the max response under setting [4] came out at 51.8%. In addition, the AC50 under setting [2] is 3.55 µM [rising, full curve, poor fit] and the AC50 under setting [3] is 3.16 µM [rising, full curve, poor fit].

For the origin of these results see PubChem BioAssay (NCATS).
